Where “and” joins values, the source holds several entries; their conditions need not be identical. Equal values may be shown once. The shares of active, inactive and inconclusive entries below differ from those in the screen. For some of these results: A potency beside an inconclusive call is a rough fit, not a confirmed value. A structure can be active in one record and inactive in another. Calls of active or inactive are those of the source. Unless noted, calls come from the whole dose curve; as a rule, active = well fitted curve in the direction sought with a large enough effect in the repeat runs; inconclusive = weak or mixed curves; inactive = no such curve, though single readings can be large; an effect the other way counts as inactive or inconclusive.
Experiments:
[1] = A CellTox Green Cytotoxicity Assay to monitor cytotoxicity in HEK293 cells - 32 hour (AID 1224881); note: nearly all actives have a fitted effect of over 40% in size
Outline: (§1)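 HEK293 cells, 600/well, were preincubated 5 hours and then exposed to compounds at 37 C for up to 40 hours. A cell-impermeant cyanine dye staining dead-cell DNA was read by fluorescence at 0, 8, 16, 24, 32 and 40 h time points.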

[2] = qHTS assay to identify small molecule antagonists of the sonic hedgehog signaling (Shh) pathway - cell viability counter screen (AID 1259367); note: nearly all actives have a fitted effect of over 55% in size; note: potency is the fitted concentration of half-maximal effect
Outline: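 After a 4 hr settling period, 3T3 Gli1-Luc cells were treated with DMSO-dissolved chemicals and conditioned medium, kept 24 hr at 37C in 5% CO2, and assayed for viability by CellTiter-Fluor fluorescence following 1 hr reagent incubation.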

[3] = A CellTox Green Cytotoxicity Assay to monitor cytotoxicity in HepG2 cells - 32 hour (AID 1224883); note: nearly all actives have a fitted effect of over 50% in size; note: potency is the fitted concentration of half-maximal effect
Outline: (§2)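 HepG2 cells, 600/well, preincubated 5 h with CellTox Green dye, then exposed to Tox21 compounds in DMSO at 37 C for up to 40 h. Dead-cell DNA fluorescence read at the indicated time point.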

[4] = A CellTox Green Cytotoxicity Assay to monitor cytotoxicity in HepG2 cells - 0 hour (AID 1224882); note: nearly all actives have a fitted effect of over 35% in size; note: potency is the fitted concentration of half-maximal effect
Outline: as §2

[5] = qHTS RealTime-Glo MT Cell Viability Assay in HEK293 cells - 24 hour (AID 1224886); note: nearly all actives have a fitted effect of over 50% in size; note: potency is the fitted concentration of half-maximal effect
Outline: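 Tox21 10K qHTS, HEK293, 600 cells/well, RealTime-Glo reagent co-dispensed with cells; 5 h preincubation, compound by pintool, 37 C, luminescence at 0–40 h.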

[6] = A CellTox Green Cytotoxicity Assay to monitor cytotoxicity in HepG2 cells - 8 hour (AID 1224890); note: nearly all actives have a fitted effect of over 45% in size; note: potency is the fitted concentration of half-maximal effect
Outline: as §2

[7] = qHTS assay to identify small molecule antagonists of the estrogen receptor alpha (ER-alpha) signaling pathway using the BG1 cell line in the presence of 0.1 nM 17-beta-estradiol - cell viability counter screen (AID 1259241); note: nearly all actives have a fitted effect of over 40% in size; note: potency is the fitted concentration of half-maximal effect
Outline: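 VM7Luc4E2, 4,000 cells/well, phenol red-free medium + 10% charcoal-stripped FBS; 24 hr plating; cpd + 0.1 nM E2 final, 22 hr 37C/5% CO2; CellTiter-Fluor 30 min, fluorescence.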

[8] = A CellTox Green Cytotoxicity Assay to monitor cytotoxicity in HEK293 cells - 8 hour (AID 1224884); note: nearly all actives have a fitted effect of over 35% in size; note: potency is the fitted concentration of half-maximal effect
Outline: as §1

[9] = qHTS RealTime-Glo MT Cell Viability Assay in HepG2 cells - 16 hour (AID 1224885); note: nearly all actives have a fitted effect of over 50% in size; note: potency is the fitted concentration of half-maximal effect
Outline: (§3)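 Cells + NanoLuc/prosubstrate dispensed (600 cells/well) → 5 h at 37 C/5% CO2 → compounds in DMSO transferred → 40 h incubation at 37 C, luminescence read at 0, 8, 16, 24, 32, 40 h.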

[10] = target: Estrogen receptor (Homo sapiens) (UniProt P03372); experiment: qHTS assay to identify small molecule antagonists of the estrogen receptor alpha (ER-alpha) signaling pathway using the BG1 cell line in the presence of 0.1 nM 17-beta-estradiol (AID 1259244); note: potency is the fitted concentration of half-maximal effect; nearly all actives have a fitted effect of over 50% in size
UniProt P03372, sequence (P03372 whole entry, looked up): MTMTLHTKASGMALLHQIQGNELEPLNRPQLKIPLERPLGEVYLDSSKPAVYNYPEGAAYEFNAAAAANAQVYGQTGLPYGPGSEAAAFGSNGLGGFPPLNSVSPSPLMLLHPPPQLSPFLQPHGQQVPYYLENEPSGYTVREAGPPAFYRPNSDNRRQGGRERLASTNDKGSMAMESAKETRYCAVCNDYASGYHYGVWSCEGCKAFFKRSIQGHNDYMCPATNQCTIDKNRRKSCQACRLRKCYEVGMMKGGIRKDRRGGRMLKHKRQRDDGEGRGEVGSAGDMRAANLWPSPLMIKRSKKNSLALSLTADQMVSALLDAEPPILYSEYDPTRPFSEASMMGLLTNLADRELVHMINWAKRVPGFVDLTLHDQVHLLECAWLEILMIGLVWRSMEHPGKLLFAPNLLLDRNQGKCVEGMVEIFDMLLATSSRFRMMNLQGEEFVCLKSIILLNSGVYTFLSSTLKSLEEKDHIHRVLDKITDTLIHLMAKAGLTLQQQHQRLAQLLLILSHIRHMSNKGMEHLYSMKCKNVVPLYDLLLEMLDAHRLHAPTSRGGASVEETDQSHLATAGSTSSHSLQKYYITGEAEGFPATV
Outline: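 VM7Luc4E2 cells (endogenous full-length ER-alpha, 4×ERE-luciferase), kept 5 days in phenol red-free, charcoal-stripped FBS medium; 4,000 cells/well. Compounds added with 0.1 nM (final) 17beta-estradiol, 22 hr at 37C; luminescence read with ONE-Glo after 30 min.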

[11] = qHTS RealTime-Glo MT Cell Viability Assay in HepG2 cells - 0 hour (AID 1224889)
Outline: as §3

[12] = qHTS assay to identify small molecule antagonists of the androgen receptor (AR) signaling pathway using the MDA cell line in the presence of 0.5 nM R1881 - cell viability counter screen (AID 1259242); note: potency is the fitted concentration of half-maximal effect; nearly all actives have a fitted effect of over 45% in size
Outline: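 MDA-kb2 cells (MMTV-luciferase, AR/GR responsive) were treated with compounds plus 0.5 nM R1881 (final) for 16 hr at 37C, 0% CO2. Viability was then read in the same wells as live-cell protease fluorescence (CellTiter-Fluor, 30 min).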

[13] = qHTS RealTime-Glo MT Cell Viability Assay in HEK293 cells - 8 hour (AID 1224887); note: nearly all actives have a fitted effect of over 50% in size; note: potency is the fitted concentration of half-maximal effect
Outline: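 600 cells/well were plated with the nonlytic NanoLuc/prosubstrate reagent, pre-incubated 5 h, then given 23 nL of compound in DMSO. Incubation at 37 C for 40 h, with luminescence from viable-cell-reduced substrate read repeatedly from 0 h.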

[14] = qHTS assay to identify small molecule agonists of the sonic hedgehog signaling (Shh) pathway - cell viability counter screen (AID 1259366); note: nearly all actives have a fitted effect of over 50% in size; note: potency is the fitted concentration of half-maximal effect
Outline: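 Cytotoxicity counter screen run in the same wells as the Shh reporter assay. NIH/3T3 cells carrying a Gli1 response element–driven luciferase were treated with DMSO-dissolved compounds for 24hr, and live-cell protease activity was measured with CellTiter-Fluor.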

[15] = qHTS assay to identify small molecule phospholipidosis (PLD) inducers (AID 1259344; active = well fitted curve in the direction sought with a large enough effect; inconclusive = small, poorly fitted or top-dose-only effect, or another doubt; inactive = no such curve, though single readings can be large; an effect the other way counts as inactive or inconclusive); conditions: HepG2 phospholipidosis, LipidTOX Red imaging, 24 h; series mostly up to 38.3 µM
Outline: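 HepG2 cells grown on collagen I take up LipidTOX Red while exposed to compound for 24 h; after fixation they are imaged at 20x and pit metrics are extracted.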

[16] = A CellTox Green Cytotoxicity Assay to monitor cytotoxicity in HEK293 cells - 16 hour (AID 1224888); note: potency is the fitted concentration of half-maximal effect; nearly all actives have a fitted effect of over 35% in size
Outline: as §1
Tags give direction and shape of the fitted curve.

O=C(O)C(=O)O
Potency [1]: inactive | Potency [2]: inconclusive: 3.07 µM [cytotoxic, partial curve]

COC(Cc1ccccc1)OC
Potency [3]: inactive

O=C(c1ccccc1)c1ccccc1
Potency [3]: inactive

NC(=O)c1ncn([C@@H]2O[C@H](CO)[C@@H](O)[C@H]2O)c1N
Potency [4]: active: 10.7 µM | Potency [5]: inactive | Potency [6]: inconclusive: 10.7 µM [activator, single point]

C=CC(=O)OCCCCCCCC
Potency [1]: inactive | Potency [2]: inactive

CC(=O)O[C@H]1C[C@@H]2CC[C@@H]3[C@H](CC[C@@]4(C)[C@H]3C[C@H]([N+]3(C)CCCCC3)[C@@H]4OC(C)=O)[C@@]2(C)C[C@@H]1N1CCCCC1
Potency [3]: inactive

ClC(Cl)(Br)Br
Potency [4]: inactive | Potency [7]: inactive

CCCCCOC(C)=O
Potency [1]: inactive | Potency [2]: inconclusive: 68.6 µM [cytotoxic, single point]

CN(C)CCCNCCCN
Potency [3]: inconclusive: 43.5 µM [activator, partial curve, poor fit]

Nc1ccc(S(=O)(=O)Nc2nccs2)cc1
Potency [4]: active: 43.6 µM | Potency [8]: active: 49 µM

O=C(O)CCCC[P+](c1ccccc1)(c1ccccc1)c1ccccc1
Potency [3]: inconclusive: 10.7 µM [activator, single point]

CC(=O)CCc1ccc(OC(C)=O)cc1
Potency [4]: inactive

CC(CC(C#N)(c1ccccc1)C(C)C)N(C)C (configuration not stated)
Potency [3]: inactive

CN1C(C)(C)CCCC1(C)C
Potency [3]: inactive

OC[C@H](Cc1cccc(O)c1)[C@H](CO)Cc1cccc(O)c1
Potency [1]: inactive | Potency [2]: inconclusive: 70.3 µM [cytotoxic, single point]

CCC1(C)NC(=O)NC1=O (configuration not stated)
Potency [3]: inconclusive: 21.9 µM [activator, single point] | Potency [9]: inactive

CC(C)=CCC/C(C)=C/C(=O)O
Potency [3]: inconclusive: 21.9 µM [activator, single point] | Potency [5]: inactive | Potency [6]: inactive

CO[Si](OC)(c1ccccc1)c1ccccc1
Potency [3]: inactive | Potency [9]: inconclusive: 0.195 µM [cytotoxic, single point] | Potency [7]: inconclusive: 77 µM [cytotoxic, single point] | Potency [10]: inconclusive: 68.6 µM [inhibitor, single point]

CCN(CC)CCNc1ccc(CNC=O)c2sc3ccc(OC)cc3c(=O)c12
Potency [3]: inconclusive: 21.9 µM [activator, single point] | Potency [5]: active: 19.5 µM | Potency [11]: inconclusive: 49 µM [cytotoxic, partial curve] | Potency [12]: inconclusive: 68.6 µM [cytotoxic]

OCCSc1ccccc1
Potency [3]: inactive | Potency [5]: inactive

Cc1c[nH]c(=O)[nH]c1=O
Potency [3]: inconclusive: 54.9 µM [activator, single point] | Potency [5]: inactive | Potency [7]: inactive

CC[N+](C)(C)c1cccc(O)c1
Potency [3]: inactive | Potency [5]: inactive

CC(=O)c1ccc2c(c1)N(CCCN1CCC(CCO)CC1)c1ccccc1S2
Potency [3]: active: 23.9 µM | Potency [5]: inconclusive: 19 µM [cytotoxic, partial curve] | Potency [13]: inconclusive: 16.9 µM [cytotoxic, partial curve] | Potency [12]: inconclusive: 33.5 µM [cytotoxic, single point] | Potency [2]: inconclusive: 8.41 µM [cytotoxic, full curve, poor fit]

CCN(CCCCOC(=O)c1ccc(OC)c(OC)c1)C(C)Cc1ccc(OC)cc1 (configuration not stated)
Potency [3]: inconclusive: 21.3 µM [activator, single point] | Potency [9]: inactive | Potency [5]: inconclusive: 23.9 µM [cytotoxic, partial curve] | Potency [13]: inconclusive: 21.3 µM [cytotoxic, partial curve] | Potency [14]: inactive

OCCOCCN1CCN(C2=Nc3ccccc3Sc3ccccc32)CC1
Potency [3]: inconclusive: 26.8 µM [activator, single point] | Potency [5]: inconclusive: 9.52 µM [cytotoxic, partial curve]

CCCn1cnc2c1c(=O)n(CCCCC(C)=O)c(=O)n2C
Potency [3]: inactive | Potency [5]: inactive | Potency [15]: inactive

Clc1cccc(-c2cc(Cl)cc(Cl)c2)c1
Potency [3]: inconclusive: 53 µM [activator, single point] | Potency [8]: inconclusive: 47.3 µM [activator, single point] | Potency [13]: inactive | Potency [16]: inconclusive: 47.3 µM [activator, single point]

COc1ccc(N)c(OC)c1
Potency [3]: inactive | Potency [8]: inactive | Potency [10]: inconclusive: 61.1 µM [inhibitor] | Potency [14]: inconclusive: 68.6 µM [cytotoxic, single point] | Potency [2]: inconclusive: 13.2 µM [cytotoxic, single point] and inconclusive: 68.6 µM [cytotoxic, single point]

Source: PubChem BioAssay (Tox21)
